This note sets out measurements from paper PMC4336329 (PLoS ONE, 2015).

Out of some 310,000 compounds screened, about 14,000 (4.5%) showed an effect of 50% or more. The effect is printed as a negative number. The list shows a part of the results.
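Further: peak tail current of the secondary pulse compared with the same well before compound.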

Chain of human ether-à-go-go-related gene (hERG) potassium channel (Q12809 whole entry, looked up): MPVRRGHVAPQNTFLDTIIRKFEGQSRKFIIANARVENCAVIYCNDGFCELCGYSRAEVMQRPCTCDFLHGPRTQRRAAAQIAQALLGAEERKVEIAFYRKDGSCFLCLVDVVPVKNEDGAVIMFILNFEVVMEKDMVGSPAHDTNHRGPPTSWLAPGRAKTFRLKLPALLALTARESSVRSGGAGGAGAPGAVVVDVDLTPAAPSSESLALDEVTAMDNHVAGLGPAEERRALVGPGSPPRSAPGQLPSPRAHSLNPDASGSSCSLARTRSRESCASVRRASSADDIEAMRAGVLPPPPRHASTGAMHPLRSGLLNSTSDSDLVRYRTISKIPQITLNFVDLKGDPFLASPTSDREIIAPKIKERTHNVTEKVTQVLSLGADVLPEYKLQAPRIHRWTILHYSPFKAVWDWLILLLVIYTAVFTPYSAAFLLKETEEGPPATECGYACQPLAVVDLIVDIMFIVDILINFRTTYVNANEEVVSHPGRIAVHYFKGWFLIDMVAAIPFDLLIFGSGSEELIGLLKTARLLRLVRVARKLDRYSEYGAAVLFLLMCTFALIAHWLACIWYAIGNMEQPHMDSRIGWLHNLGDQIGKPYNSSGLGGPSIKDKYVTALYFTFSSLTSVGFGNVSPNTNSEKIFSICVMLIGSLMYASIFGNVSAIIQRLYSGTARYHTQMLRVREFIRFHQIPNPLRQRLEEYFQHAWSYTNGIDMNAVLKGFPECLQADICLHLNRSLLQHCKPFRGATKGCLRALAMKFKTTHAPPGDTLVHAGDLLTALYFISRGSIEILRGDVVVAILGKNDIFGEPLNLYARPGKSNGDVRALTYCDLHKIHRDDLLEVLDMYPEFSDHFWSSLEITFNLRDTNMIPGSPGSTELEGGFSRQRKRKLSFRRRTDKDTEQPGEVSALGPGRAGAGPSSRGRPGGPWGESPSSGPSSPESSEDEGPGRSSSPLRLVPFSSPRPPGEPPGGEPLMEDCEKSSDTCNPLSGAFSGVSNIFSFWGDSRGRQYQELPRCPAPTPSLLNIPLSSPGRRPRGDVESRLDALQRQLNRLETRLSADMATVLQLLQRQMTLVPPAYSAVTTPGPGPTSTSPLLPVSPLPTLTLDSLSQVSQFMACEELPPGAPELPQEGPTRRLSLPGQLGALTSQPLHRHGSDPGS

The experiment concerns the target human ether-à-go-go-related gene (hERG) potassium channel (human, UniProt Q12809). The experiment is described as follows: primary screen, population patch clamp on CHO cells stably expressing hERG.
As to `COC(=O)C1=C(c2ccc(F)cc2OCc2ccccc2)C[C@@H]2CC[C@H]1N2C(=O)NCCCc1ccccc1`, the “hERG current change (%, negative = inhibition) at 10uM” value was determined as 4.96%.
Then `Cc1ccc(NC(=O)c2cc(S(=O)(=O)N3CCCCC3)c[nH]2)cc1F`, with 8.93%; and `COC(=O)c1ccc(N=Nc2c(C)[nH]n(-c3ccccc3)c2=O)cc1`, with 15.6%.
Then `CCN1CCN(c2cc(C(C)C)nc3c(-c4ccccc4)c(C)nn23)CC1`, with 7.76%.
As for `COc1ccc(C)cc1NC(=O)CNC(C)C(=O)Nc1cc(Cl)ccc1Cl` (stereo not drawn), the “hERG current change (%, negative = inhibition) at 10uM” value is on record as -27.2%.
The figure for `CC1COc2ccccc2N1S(=O)(=O)c1cc(Cl)ccc1Cl` (stereo not drawn) is 16.9%; for `Cn1ccnc1SCC(=O)N1CCc2ccccc21` it is 0.132%; for `CC(C)(Oc1ccc(CCNC(=O)c2ccc(Cl)cc2)cc1)C(=O)O` it is 26.1%.
Then `COC(=O)c1sccc1NC(=O)c1ccc(OC)cc1OC`, with -3.19%.
The figure for `CC(C)COC(=O)C(C)Nc1n[nH]c(=S)[nH]c1=O` (stereo not drawn) is 20.4%.
`N#CC1=C(N)SC(N)=C(C#N)C1c1ccc([N+](=O)[O-])cc1`: the “hERG current change (%, negative = inhibition) at 10uM” value is on record as 7.8%.
Then `COc1ccc(C)cc1NC(=O)CSc1ccc(-c2cccnc2)nn1`, with -31.1%; and `O=C1CC(c2ccccc2)Cc2nc(N3CCc4ccccc43)ncc21` (stereo not drawn), with 13.2%; and `CCOC(=O)N1CCN(C(=O)c2ccc(NS(=O)(=O)c3ccc(C)cc3)cc2)CC1`, with -2.76%.
For `COC(=O)C1=C(c2cccc(OCc3ccccc3)c2)C[C@@H]2CC[C@H]1N2C(=O)NCc1ccc(F)cc1`, the “hERG current change (%, negative = inhibition) at 10uM” value is reported as -0.06%.
Consider `O=C(C1CCCCC1)N1CCN(S(=O)(=O)c2ccc(Cl)cc2)CC1`, for which the “hERG current change (%, negative = inhibition) at 10uM” value is -17.2%.
The figure for `C/C(Cc1ccccc1)=N\NC(=O)CNC(=O)c1ccc(Br)cc1` is 9.43%.
With `Cc1ccc(-n2nc3c(c2NC(=O)c2ccc4c(c2)OCO4)CSC3)c(C)c1`, the “hERG current change (%, negative = inhibition) at 10uM” value worked out at 3.77%.
Take `CCOc1ccc(NC(=O)CN(C)C(=O)C2CC(=O)N(Cc3ccco3)C2)cc1OCC` (stereo not drawn): the “hERG current change (%, negative = inhibition) at 10uM” value amounted to 1.59%.
As to `CN1CCN(Cn2cc(/C=C/C(=O)c3ccccc3)c3ccccc32)CC1`, the “hERG current change (%, negative = inhibition) at 10uM” value is -31.1%.
Then `O=C(CCN1C(=O)/C(=C/c2ccccc2)SC1=S)Nc1cccnc1`, with 12.9%.
As for `CCOC(=O)CC(C#N)c1cn(C)c2ccccc12` (stereo not drawn), the “hERG current change (%, negative = inhibition) at 10uM” value is given as -17.8%.
The figure for `CCC(=O)Nc1nc(CC(=O)Nc2ccccc2OC)cs1` is -37.5%; for `CC(C)CN(CCNC(=O)CN1N=C(c2ccc(Cl)cc2)CCC1=O)CC(C)C` it is -42.4%.
